Measurements reported in article PMC9911399, “Two distinct binding modes provide the RNA-binding protein RbFox with extraordinary sequence specificity”.
Substitutions are numbered along the chain they refer to; changes in the protein carry UniProt numbers. Some of the results follow.

T1: RBFOX1 RRM RbFoxmut (Fox-RRM*) (Homo sapiens, UniProt Q9NWB1 109-208, R118D;E147R;N151S;E152T)
T1 sequence: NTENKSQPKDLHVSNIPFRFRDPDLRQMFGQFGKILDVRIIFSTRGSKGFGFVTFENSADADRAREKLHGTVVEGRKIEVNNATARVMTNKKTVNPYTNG

B1: GGGUCAU (DNA:RNA)
RNA: GGGAGACCGGAAUUCAGAUUGUCCGGGUCAUUUAAAUCCCGUCGUAGCCACCA
DNA 1: CAATCTGAATTCCGGTCTCCC
DNA 2: TGGTGGCTACGACGGGATT
B2: AAUGGGG (DNA:RNA)
RNA: GGGAGACCGGAAUUCAGAUUGUCCAAUGGGGUUAAAUCCCGUCGUAGCCACCA
DNA 1: CAATCTGAATTCCGGTCTCCC
DNA 2: TGGTGGCTACGACGGGATT
B3: CUACAGA (DNA:RNA)
RNA: B2 RNA with A25C, A26U, U27A, G28C, G29A, G31A
DNA 1: CAATCTGAATTCCGGTCTCCC
DNA 2: TGGTGGCTACGACGGGATT
B4: UAUAGCA (DNA:RNA)
RNA: B2 RNA with A25U, G28A, G30C, G31A
DNA 1: CAATCTGAATTCCGGTCTCCC
DNA 2: TGGTGGCTACGACGGGATT
B5: UCAAAUU (DNA:RNA)
RNA: B1 RNA with G25U, G26C, G27A, U28A, C29A, A30U
DNA 1: CAATCTGAATTCCGGTCTCCC
DNA 2: TGGTGGCTACGACGGGATT
B6: CAUCUCG (DNA:RNA)
RNA: B2 RNA with A25C, G28C, G29U, G30C
DNA 1: CAATCTGAATTCCGGTCTCCC
DNA 2: TGGTGGCTACGACGGGATT
B7: GUAGUAC (DNA:RNA)
RNA: B1 RNA with G26U, G27A, U28G, C29U, U31C
DNA 1: CAATCTGAATTCCGGTCTCCC
DNA 2: TGGTGGCTACGACGGGATT
B8: UCUAUCC (DNA:RNA)
RNA: B2 RNA with A25U, A26C, G28A, G29U, G30C, G31C
DNA 1: CAATCTGAATTCCGGTCTCCC
DNA 2: TGGTGGCTACGACGGGATT
B9: AGCCAAC (DNA:RNA)
RNA: B1 RNA with G25A, G27C, U28C, C29A, U31C
DNA 1: CAATCTGAATTCCGGTCTCCC
DNA 2: TGGTGGCTACGACGGGATT
B10: UUGGGCC (DNA:RNA)
RNA: B2 RNA with A25U, A26U, U27G, G30C, G31C
DNA 1: CAATCTGAATTCCGGTCTCCC
DNA 2: TGGTGGCTACGACGGGATT
B11: AAUCCCA (DNA:RNA)
RNA: B2 RNA with G28C, G29C, G30C, G31A
DNA 1: CAATCTGAATTCCGGTCTCCC
DNA 2: TGGTGGCTACGACGGGATT
B12: AGCAUCC (DNA:RNA)
RNA: B2 RNA with A26G, U27C, G28A, G29U, G30C, G31C
DNA 1: CAATCTGAATTCCGGTCTCCC
DNA 2: TGGTGGCTACGACGGGATT
B13: GGUUCCC (DNA:RNA)
RNA: B1 RNA with G27U, A30C, U31C
DNA 1: CAATCTGAATTCCGGTCTCCC
DNA 2: TGGTGGCTACGACGGGATT
B14: AAGGCAU (DNA:RNA)
RNA: B1 RNA with G25A, G26A, U28G
DNA 1: CAATCTGAATTCCGGTCTCCC
DNA 2: TGGTGGCTACGACGGGATT
B15: UAGACAU (DNA:RNA)
RNA: B1 RNA with G25U, G26A, U28A
DNA 1: CAATCTGAATTCCGGTCTCCC
DNA 2: TGGTGGCTACGACGGGATT
B16: CGUAAGU (DNA:RNA)
RNA: B2 RNA with A25C, A26G, G28A, G29A, G31U
DNA 1: CAATCTGAATTCCGGTCTCCC
DNA 2: TGGTGGCTACGACGGGATT
B17: UAAGUAU (DNA:RNA)
RNA: B2 RNA with A25U, U27A, G29U, G30A, G31U
DNA 1: CAATCTGAATTCCGGTCTCCC
DNA 2: TGGTGGCTACGACGGGATT
B18: UCCGGAA (DNA:RNA)
RNA: B2 RNA with A25U, A26C, U27C, G30A, G31A
DNA 1: CAATCTGAATTCCGGTCTCCC
DNA 2: TGGTGGCTACGACGGGATT
B19: CCCAUAA (DNA:RNA)
RNA: B1 RNA with G25C, G26C, G27C, U28A, C29U, U31A
DNA 1: CAATCTGAATTCCGGTCTCCC
DNA 2: TGGTGGCTACGACGGGATT
B20: UGAAACA (DNA:RNA)
RNA: B1 RNA with G25U, G27A, U28A, C29A, A30C, U31A
DNA 1: CAATCTGAATTCCGGTCTCCC
DNA 2: TGGTGGCTACGACGGGATT

Each binder was assayed against T1, RBFOX1 RRM RbFoxmut (Fox-RRM*) (assay: EMSA; HiTS-Eq, 1 nM pool, 10 min; buffer printed only for the single-RNA assays: 10 mM Tris pH 7.5, 150 mM NaCl, 3.4 mM EDTA, 0.001% NP-40, 30 C). Settings: tags: His6 N-terminal (pET28a); label: 5' 32P.
Outline: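 These values rest on relative association constants, computed from read-count changes of each RNA species versus the control reaction and normalised to the cognate motif. Reads came from free RNA recovered by 8% native PAGE after purified RbFox RRM (wild type or mutant) at increasing concentrations was equilibrated for 10 min in 50 µL with 1 nM of a 5′-radiolabelled pool with 7 randomized nucleotides and DNA-annealed flanks.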
B1 was tested, and the binding signal was 0.106 KA relative to UGCAUGU. In the case of B2, the binding signal is reported as 0.0816 KA relative to UGCAUGU. With B3 the binding signal was 0.067 KA relative to UGCAUGU. B4 was tested, and the binding signal was 0.12 KA relative to UGCAUGU. For B5, the binding signal was 0.0774 KA relative to UGCAUGU. With B6 the binding signal was 0.0883 KA relative to UGCAUGU. For B7, the binding signal was 0.102 KA relative to UGCAUGU. For B8, the binding signal was 0.0745 KA relative to UGCAUGU. In the case of B9, the binding signal is reported as 0.0866 KA relative to UGCAUGU. With B10 the binding signal was 0.216 KA relative to UGCAUGU. For B11, the binding signal was 0.0738 KA relative to UGCAUGU. In the case of B12, the binding signal is reported as 0.237 KA relative to UGCAUGU. In the case of B13, the binding signal is reported as 0.146 KA relative to UGCAUGU. In the case of B14, the binding signal is reported as 0.0882 KA relative to UGCAUGU. With B15 the binding signal was 0.0611 KA relative to UGCAUGU. With B16 the binding signal was 0.115 KA relative to UGCAUGU. For B17, the binding signal was 0.0876 KA relative to UGCAUGU. In the case of B18, the binding signal is reported as 0.0662 KA relative to UGCAUGU. With B19 the binding signal was 0.0954 KA relative to UGCAUGU. In the case of B20, the binding signal is reported as 0.089 KA relative to UGCAUGU.
